Measurements published in PubChem BioAssay (NCI).
Where “and” joins values, the source holds several entries; their conditions need not be identical. Equal values may be shown once.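 Interpolation was linear, between the two tested concentrations surrounding the appropriate level; five concentrations were tested over 48 hours in 96-well plates. GI50 is the concentration that inhibits growth by half. TGI is the concentration that stops growth completely.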

Tested on: NCI-H322M lung
Test: NCI tumour cell line growth inhibition, 48 h

Row | SMILES | GI50 | TGI
1 | Cc1ncc(C(=O)Nc2ccc(CN3CCN(C)CC3)c(C(F)(F)F)c2)cc1C#Cc1cnc(N)c2ncccc12 | 0.3 µM | 6.89 µM
2 | O=C(/C=C\c1ccccc1)Oc1ccc(/C=C2\CCCCC2=O)cc1 | – | > 100 µM
3 | c1ccc(-c2nnc(Nc3ccc4c(c3)OCCO4)o2)c(NCc2ccncc2)c1 | 0.0864 µM | > 100 µM
4 | CN(C)C(=O)c1cc2cnc(Nc3ccc(-c4csc5c(=O)cc(N6CCNCC6)oc45)cc3)nc2n1C1CCCC1 | 1.04 µM | 7.91 µM
5 | CN1C(=O)c2c(c3c4ccccc4n(C4OC(CO)C(O)C(O)C4O)c3c3[nH]c4ccccc4c23)C1=O (stereo unspecified) | – | 11.2 µM
6 | COC(=O)[C@]12CCC(C)(C)C[C@H]1C1=CC[C@@H]3[C@@]4(C)CC[C@H](OC5OC(CO)C(O)C(O)C5OC5OC(CO)C(O)C(O)C5O)C(C)(C)[C@@H]4CC[C@@]3(C)[C@]1(C)CC2 (stereo partly specified) | – | 18.8 µM
7 | CC(=O)C1C(=O)C(=O)N(c2ccccc2N2C(=O)C(=O)C(C(C)=O)C2=O)C1=O (stereo unspecified) | – | > 100 µM
8 | COC(=O)c1c2c(c(-c3ccccc3)c3c1-c1nc(Cl)ccc1CC3)CCc1ccc(Cl)nc1-2 | – | > 100 µM
9 | CC(=O)O[C@H]1CC[C@]2(C)[C@H]3CC=C4[C@@H]5CC(C)(C)CC[C@]5(C(=O)NCCNCCN)CC[C@@]4(C)[C@]3(C)CC[C@H]2C1(C)C | 1.54 µM | 2.9 µM
10 | O=C(O)CCCCCO | – | > 100 µM
11 | CC[C@H](C)C1=C(O)[N@+]2([O-])Oc3ccc(-c4c(O)c(O)c(-c5ccc(OC(C)=O)cc5)c(OC(C)=O)c4OC(C)=O)cc3O[C@]2([C@@H](C)CC)C(=O)N1O | – | > 50 µM
12 | O=C(Nc1nc2ccccc2n1Cc1ccc(Cl)cc1)NC12CC3CC(CC(C3)C1)C2 | – | > 100 µM
13 | CC1=C(C#N)C2C(=C(N)Oc3ccccc32)C(N)=N1 (stereo unspecified) | – | 70 µM
14 | CC(C)C1SCc2nc3ccccc3n21 (stereo unspecified) | – | > 100 µM
15 | COc1ccc(-c2cc(-c3cn[nH]c3-c3ccccn3)ccn2)cc1 | > 25 µM | > 25 µM
16 | Cc1c2cccc-2ccc2c1[nH]c1ccc(Br)cc12 | – | 26.7 µM
17 | O=C1c2cscc2C(=O)C1(O)O | – | > 100 µM
18 | CC(=O)OC1CCC2(C)C(CCC3C4CC=C(C(C)=O)C4(C)OC(=O)CC32)C1 (stereo unspecified) | 12.1 µM | 24.9 µM
19 | O=C1/C(=C/c2ccccc2)N=C(c2ccccc2)N1C1Nc2cc3c(cc2S1)NC(N1C(=O)/C(=C/c2ccccc2)N=C1c1ccccc1)S3 (stereo unspecified) | – | > 100 µM
20 | O=C(Cc1ccccc1)NNc1nc(NNC(=O)c2ccncc2)nc(Nc2ccccc2)n1 | – | > 10 µM
21 | Nc1nc(N)c2c(ccc3nccc32)[nH]1 | 2.08 µM | 20.2 µM
22 | Cc1ccc2c(Nc3cccc(Cl)c3F)ncc(NC(=O)c3csc4c(N)ncnc34)c2c1 | > 100 µM | > 100 µM
23 | Cc1ccccc1-c1c(N)nc(N)nc1C(=O)Nc1nccs1 | – | > 100 µM

Row | SMILES | GI50 | TGI
24 | c1ccc(N=c2sc3ccccc3sc2=Nc2ccccc2)cc1 | – | 12 µM
25 | COc1cc(/C=C/c2ccc(OC(C)=O)cc2)cc(OC)c1OC | – | > 100 µM
26 | Cc1cc(S(=O)(=O)n2ccnc2Oc2ccccc2)c(SSc2cc(Cl)c(C)cc2S(=O)(=O)n2ccnc2Oc2ccccc2)cc1Cl | – | > 100 µM
27 | Nc1ccc(Nc2c3ccccc3nc3ccccc23)cc1 | – | > 10 µM
28 | CC1(Br)C(=O)NC(=O)N(C2CC(N=[N+]=[N-])C(CO)O2)C1N=[N+]=[N-] (stereo unspecified) | – | > 100 µM
29 | Nc1ccn(C2CC(O)C(CO)O2)c(=O)n1 (stereo unspecified) | > 5000 µM | > 5000 µM
30 | Cc1cccc(NC(=O)CCl)c1 | – | > 10 µM
31 | CCCN(CCC)c1cc2c(cc1F)c(=O)c(C(=O)O)cn2-c1ccc(N2CCN(C)CC2)cn1 | – | 32.6 µM
32 | CCO/C=N/C1=C(C#N)C(c2ccc(Cl)cc2)c2c(-c3ccccc3)nn(-c3ccccc3)c2O1 (stereo unspecified) | – | > 100 µM
33 | CCOC(=O)NC | – | > 100 µM
34 | CCOC(=O)Cn1c(C)c(/C=N/NC(=O)c2cc3c(ccc4ccccc43)o2)c2ccccc21 | 0.941 µM | 16.8 µM
35 | CC(C)=CCC[C@](C)(O[C@@H]1O[C@H](CO)[C@@H](O)[C@H](O)[C@H]1O)[C@H]1CC[C@]2(C)[C@@H]1[C@H](O)C[C@@H]1[C@@]3(C)CC[C@H](O)C(C)(C)[C@@H]3[C@@H](O[C@@H]3O[C@H](CO)[C@@H](O)[C@H](O)[C@H]3O)C[C@]12C | – | > 100 µM
36 | CN(C)CC/C(=N\Nc1ccc(Cl)c(Cl)c1)c1ccccc1 | – | 15.5 µM
37 | C[C@H]1[C@H](C)CC[C@]2(C(=O)O)CC[C@]3(C)C(=CC[C@@H]4[C@@]5(C)CC[C@H](OC(=O)/C=C/c6ccc(O)cc6)C(C)(C)[C@@H]5CC[C@]43C)[C@H]12 | 2.91 µM | 44.1 µM
38 | CC(CO)(CO)Nc1ncnc2ccccc12 | – | > 100 µM
39 | Cc1ccc(CC2(OCCN(C)C)CCC(C(C)(C)C)CC2)cc1 (stereo unspecified) | – | 10.7 µM and 5.85 µM
40 | CC(C)[Si](OC1=C(C(=O)N(C)c2ccccc2Cl)CCCC1)(C(C)C)C(C)C | – | 28.2 µM
41 | OCCNc1ncnc2c1ncn2C1OC(CO)C(O)C1O (stereo unspecified) | – | > 100 µM
42 | CCOC(=O)CCC(C(=O)OCC)n1nnc2ccc(Nc3c(C)[n+]([O-])c4cc(Cl)ccc4[n+]3[O-])cc21 (stereo unspecified) | – | > 100 µM
43 | C/C1=C\C/C=C(\C)[C@H]2CC(CC/C(C)=C/CC1)[C@@](C)(CO)O2 | > 100 µM | > 100 µM
44 | COc1cc(Cn2ccc3c2-c2oncc2CC3)cc(OC)c1 | 7.75 µM | > 100 µM
45 | COc1cc([C@@H]2c3cc4c(cc3[C@@H](NCc3ccccc3)C3COC(=O)[C@@H]32)OCO4)cc(OC)c1O (stereo partly specified) | – | > 100 µM
46 | Cc1ccc(S(=O)(=O)SCc2ccccc2CSS(=O)(=O)c2ccc(C)cc2)cc1 | – | > 100 µM

Row | SMILES | GI50 | TGI
47 | Fc1ccc(-c2nnc3sc(COc4ccccc4Cl)nn23)cc1Cl | > 100 µM | > 100 µM
48 | C=CC(=O)N1CCC([C@@H]2CCNc3c(C(N)=O)c(-c4ccc(Oc5ccccc5)cc4)nn32)CC1 | 1.65 µM | 28.1 µM
49 | CCN1C(=O)c2ccccc2C1(O)c1ccc(Cl)cc1 (stereo unspecified) | – | > 100 µM
50 | COc1cc(Br)cc2nc(-c3cccs3)oc12 | – | > 100 µM
51 | COc1cc2c(cc1Oc1ccc(OC)c3c1CC1c4c(cc(OC)c(OC)c4-3)CCN1C)CC1c3c(cc(OC)c(OC)c3-2)CCN1C (stereo unspecified) | – | 5.14 µM
52 | O=C(O)C1=NNC(C(=O)O)=NN1 | – | > 100 µM
53 | CCOC(=O)c1ccc(Nc2sc(C(=O)c3cccc([N+](=O)[O-])c3)c(N)c2C#N)cc1 | 0.311 µM | 42.6 µM
54 | CC1(C)CC(OCCCC[P+](c2ccccc2)(c2ccccc2)c2ccccc2)CC(C)(C)N1O | 0.894 µM | 11.8 µM
55 | O=C(Nc1sccc1S(=O)(=O)c1ccc(Cl)cc1)C(F)(F)F | – | > 100 µM
56 | CCOC(=O)[C@H]1Nc2ccc(Cl)cc2[C@H]2OCC[C@@H]12 | – | > 100 µM
57 | Nc1nnc(N)n1NC(=O)C(=O)Nc1ccc([N+](=O)[O-])cc1 | – | > 100 µM
58 | COc1cc(S(=O)(=O)Nc2nc(-c3ccc(N)cc3)cs2)ccc1Cl | – | > 100 µM
59 | COc1ccc(/C=C/C(=O)c2ccc3cc(OC)c(OC)cc3c2)cc1OC | 3.86 µM | 90.8 µM
60 | COc1ccc(N2C(=O)c3cccnc3S2(=O)=O)cc1 | – | > 100 µM
61 | O=c1oc2ccc(Cl)cc2c(=O)n1-c1cc(C(F)(F)F)cc(C(F)(F)F)c1 | 0.312 µM | 6.7 µM
62 | CN(C)CCNC(=O)Cn1ccc(=O)c2ccc([N+](=O)[O-])cc21 | – | > 100 µM
63 | CC(=O)Nc1ccccc1-c1cnc2ccccc2n1 | – | > 100 µM
64 | CCN(CC)CCn1c2cc3c(cc2c(=O)c2cccnc21)OCO3 | – | > 10 µM
65 | COc1ccc([C@H]2C=C(c3cc(F)c(Cl)cc3Cl)NC(=S)N2)cc1 | – | > 100 µM
66 | O=C(O)CCCSc1nc2ccccc2s1 | – | > 100 µM
67 | O=C(CC(=O)Nc1ccccc1O)Nc1ccccc1O | – | > 100 µM
